This note sets out measurements from the RNAGym collection of RNA variant scans (doi:10.1073/pnas.2313332121).

This sample is rich in variants without activity.

B1: TPR 5TU (parent)
chain: GGAUCUUCUCGAUCUAACAAAAAAGACAAAUCUGCCACAAAGCUUGAGAGCAUCUUCGGAUGCAGAGGCGGCAGCCUUCGGUGGCGCGAUAGCGCCAACGUUCUCAACUAUGACACGCAAAACGCGUGCUCCGUUGAAUGGAGUUUAUCAUG

The data set covers variants of B1. Put plainly: polymerase ribozyme fitness, log enrichment relative to wild type (log ratio); higher = more active; in vitro selection for triplet polymerase activity. A digest of the protocol:
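The heterodimeric triplet polymerase ribozyme's subunits were each mutagenized into PCR-built libraries and transcribed. Every library was selected once, in triplicate, by annealing with a biotinylated primer, the partner subunit and triplets, incubating frozen at −7 °C, gel-excising extended constructs, capturing on streptavidin beads and running RT-PCR. Input and output libraries were Illumina-sequenced, with genotypes kept only at ≥10 input reads and ≥1 read per output. Fitness, from inverse-variance-weighted replicate averages, is the base-2 logarithm of genotype enrichment over wild-type enrichment.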
As for A3G G92C C95U A107C A113G C114U A138G, the “polymerase ribozyme fitness (log ratio)” value is at most -4.2.
The same measure for A3C U4C C5G G74U C75U U78G C85U A150G: at most -4.2; for U4A C14U A19G A21G U61C G88C G117C A138C: at most -4.2.
As to A3G U7C A29C U55A G62C G88C, the “polymerase ribozyme fitness (log ratio)” value is at most -4.2.
Take C5A A16C A40U C79A C87U: the “polymerase ribozyme fitness (log ratio)” value was at most -4.2.
In the case of C5A U55A U135G A138U it was at most -4.2; in that of C5G U7C A29C U33A C54G C85G U134G, at most -4.2; in that of A3C C76A G92A, at most -4.2.
In the case of C5G A20G G34C G59A G86C G133A, the “polymerase ribozyme fitness (log ratio)” value is at most -4.2.
In the case of A3U C36U A49G G88C C132G A137G G143U, the “polymerase ribozyme fitness (log ratio)” value is at most -4.2.
Turning to A3U A23G U45G G46C U56A C85U U90A G92C C93A, the “polymerase ribozyme fitness (log ratio)” value was at most -4.2.
For the variant U4C A39G G42A C87U, the “polymerase ribozyme fitness (log ratio)” value was at most -4.2.
In the case of U4G U53A U55G C75U G86C U146G, the “polymerase ribozyme fitness (log ratio)” value was at most -4.2.
Turning to C5G A29U A49C G62C A73C C87A U127G, the “polymerase ribozyme fitness (log ratio)” value is at most -4.2.
Take C5A C14U G34U: the “polymerase ribozyme fitness (log ratio)” value is at most -4.2.
In the case of C5U C43G A49C C75U C76G U77G G94C it was at most -4.2; in that of A3C A24C A40U U61A G62A G68C C85U G92C C131U G136U, at most -4.2; in that of C5U A26G G59C G62C C75G, at most -4.2.
As for U4C A49U G65A C96A U135G U144G, the “polymerase ribozyme fitness (log ratio)” value is at most -4.2.
With A3G U13A C57A A60G A66G C96G U101G, the “polymerase ribozyme fitness (log ratio)” value was at most -4.2.
As to U4G G67C G83C, the “polymerase ribozyme fitness (log ratio)” value was at most -4.2.
Consider U4G C18G G34C, for which the “polymerase ribozyme fitness (log ratio)” value was at most -4.2.
Regarding C5U A21U G42C A60G A66C C76G C93A C118U, the “polymerase ribozyme fitness (log ratio)” value is at most -4.2.
The same measure for U4G A22C A26U C57A G58C C76A U82G C85G A98U C103G G117U: at most -4.2; for C5A A23G A47U G50U U53A G81C A120G U145C: at most -4.2; for A3G U6C U61A C99U: at most -4.2.
Take A3G A47U G50C G84U G86U: the “polymerase ribozyme fitness (log ratio)” value is at most -4.2.
The same measure for A3U U6A G25A G81A C93U A98C A137G: at most -4.2.
In the case of A3U C18A G83A G92A A107G G143C it was at most -4.2.
In the case of C5U A20U C38U C57A C76A C85G U139A, the “polymerase ribozyme fitness (log ratio)” value is at most -4.2.
As for U4A C8G A26G A39U C43A G58U C72A C99U A106G G143C A150C, the “polymerase ribozyme fitness (log ratio)” value is at most -4.2.
Regarding U4A U102A U111G, the “polymerase ribozyme fitness (log ratio)” value was at most -4.2.
The same measure for A3G A12G A16G A22G A29C U55G U61G C75U G92U U130G: at most -4.2; for C5U A22U C87A A138C U148A: at most -4.2.
The same measure for A3U A12G A26U G50U G92A C96U A97U: at most -4.2.
For C5G U9G A28C A29C A40G U45C A91C C114A C118U U127C, the “polymerase ribozyme fitness (log ratio)” value was at most -4.2.
Consider U4C A23G A29U C32U U53C C93G G141C G143A, for which the “polymerase ribozyme fitness (log ratio)” value is at most -4.2.
For the variant A3G U7A A23G A28C A40C G48A G62C C99A G128U, the “polymerase ribozyme fitness (log ratio)” value was at most -4.2.
C5A A20C A23U A91G G94A C114U C149U: the “polymerase ribozyme fitness (log ratio)” value is at most -4.2.
The same measure for U4G A30G A39U A49U C85A: at most -4.2; for C5A U53A C76G G86U A91G A147U: at most -4.2; for U4G U33C C51G A142U: at most -4.2.
As to U4G C57A G80A U111C G141U, the “polymerase ribozyme fitness (log ratio)” value was at most -4.2.
Take A3U C18G C43U G58U C79A G88C C103A C125A: the “polymerase ribozyme fitness (log ratio)” value is at most -4.2.
Consider C5A G92A U104G A138C, for which the “polymerase ribozyme fitness (log ratio)” value is at most -4.2.
With A3U G11C G58C A73U A91U, the “polymerase ribozyme fitness (log ratio)” value was at most -4.2.
As to U4G C32U G48C G50A U55G A64C G65A C95U U109G, the “polymerase ribozyme fitness (log ratio)” value is at most -4.2.
Regarding C5G A16U A21U A37C C87U C96A A113U, the “polymerase ribozyme fitness (log ratio)” value was at most -4.2.
The same measure for A3C A22G G25A A39U U56A G59A U61A G94A: at most -4.2.
For U4G A20U C51U G83U A115G G152U, the “polymerase ribozyme fitness (log ratio)” value is at most -4.2.
In the case of C5A A17C A22U A49C G50A C57G G58A C69A U90A C93U U134C A137C it was at most -4.2.
The same measure for A3U G86A U148A: at most -4.2.
Turning to U4C C10G U56G A64G G65C A91C C93U, the “polymerase ribozyme fitness (log ratio)” value was at most -4.2.
The same measure for C5G C10U A21G A29G A47U C54A A73U C95A C96A U102A C118U G141C: at most -4.2.
U4A A20G C54U U55A G62C G68A C96A G143U: the “polymerase ribozyme fitness (log ratio)” value is at most -4.2.
Turning to A3U A23C C32A C72A A73C A89G C95U U104G, the “polymerase ribozyme fitness (log ratio)” value is at most -4.2.
In the case of C5U C35A A39G C93G U127G it was at most -4.2.
With A3C U4G C8U A60G A106U A137C, the “polymerase ribozyme fitness (log ratio)” value was at most -4.2.
Consider A3U C14G A21G U61A G94A U109C A142G, for which the “polymerase ribozyme fitness (log ratio)” value is at most -4.2.
In the case of A3G C8A U15G U78A C85A U144C U146G, the “polymerase ribozyme fitness (log ratio)” value was at most -4.2.
U4A A41C C105U C129A G136A: the “polymerase ribozyme fitness (log ratio)” value is at most -4.2.
On to U4G A29U C51G G83A, for which the “polymerase ribozyme fitness (log ratio)” value is at most -4.2.
C5G A24G U55G C96A U146C: the “polymerase ribozyme fitness (log ratio)” value is at most -4.2.
As to C5G A28U A30U A40G G46A U134G U144C, the “polymerase ribozyme fitness (log ratio)” value is at most -4.2.
Consider U4C A22C A52G G141A A147C, for which the “polymerase ribozyme fitness (log ratio)” value is at most -4.2.
The same measure for A3C G48U U90C G92A G152A: at most -4.2; for C5A U78G C87G U135A U139A: at most -4.2; for A3C C8G C93G A97U C105U C116U: at most -4.2.
For U4G C87G U139A, the “polymerase ribozyme fitness (log ratio)” value was at most -4.2.
The same measure for A3C A40G A52G U55A G59A G84A G126A C132U A137C A150G U151C: at most -4.2; for C5G A19C A22C C93A C116G A122C C149U: at most -4.2; for U4C A26U U45C G94U C105G G124U G143C: at most -4.2.
The same measure for A3G G88C: at most -4.2.
Regarding C5G A12C A49U A91U C95G C99G G124U, the “polymerase ribozyme fitness (log ratio)” value is at most -4.2.
A3C C8A U61G G84A C93A G141C: the “polymerase ribozyme fitness (log ratio)” value was at most -4.2.
In the case of A3G U15A U31G C35U U61C C85U U102A A110G A122U G126A it was at most -4.2; in that of A3U G34A A66G C93A U135A, at most -4.2.
In the case of A3G C43U C93G A119U A120C, the “polymerase ribozyme fitness (log ratio)” value is at most -4.2.
The same measure for U4C C43U C51G C87U: at most -4.2; for U4A U31C U55A G65C G80C C114U: at most -4.2.
The same measure for A3U U78A: at most -4.2; for U4C A41C G74U C93A A115U: at most -4.2; for U4C C10G A28U A30G G50U U77A A107G C131A U146G: at most -4.2.
Regarding U4G A12C A23G U33G G42C G68C G71U G84U C108U, the “polymerase ribozyme fitness (log ratio)” value was at most -4.2.
